Data reported in PubChem BioAssay (NCATS).
The shares of active, inactive and inconclusive entries below differ from those in the screen. For some assays here: Potencies beside an inconclusive call are fits to weak or partial responses and may not hold up. For some assays here: “Side channel” marks fits to a control or component signal instead of the main read-out. Active and inactive are the calls of the source. Unless noted, the call rests on the fitted dose curve; in most records, active means well fitted curve in the direction sought with a large enough effect; inconclusive means small, poorly fitted or top-dose-only effect, or another doubt; inactive means no such curve, though single readings can be large; an effect the other way counts as inactive or inconclusive.

How the values were obtained:
[1] = Cell Viability - Jurkat (AID 426;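 active means dose-dependent loss of cell ATP signal giving a full or clear fitted curve, ranked by lower potency value; inconclusive means weak partial curve or response only at the top dose; inactive means no loss of viability signal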; further: potency means the concentration at half of the fitted maximal effect); conditions: qHTS
Method in brief: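 Jurkat (clone E6-1, human T-cell leukemia) cells, 5000/well in complete medium, were exposed to compound for 40 hr at 37 °C. Viability was read as intracellular ATP by CellTiter-Glo luminescence; AC50 came from Hill fits of concentration-response data.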

[2] = Cell Viability - NIH 3T3 (AID 541); conditions: NIH 3T3 cell viability, qHTS; activity change, negative = cytotoxicity: at 92.2 µM (top of the series);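 further: plate controls were DMSO alone for no effect and tamoxifen positive control for full effect; nearly all actives have a fitted effect of over 25% in size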
Method in brief: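 NIH 3T3 mouse embryo fibroblasts (1000 cells/well) were plated in complete medium and treated with compound for 40 hr at 37 °C. Viability was read as intracellular ATP by CellTiter-Glo luminescence; AC50 values came from Hill-equation fits of concentration-response data.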

[3] = Cell Viability - LYMP2-001 (AID 921); conditions: LYMP2-001 lymphoblastoid cell viability; series mostly up to 92.2 µM; further: potency means the concentration at half of the fitted maximal effect; nearly all actives have a fitted effect of over 70% in size
Method in brief: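 Cellular ATP loss read by luciferase luminescence after 24 h compound exposure at 37 C in complete medium. LYMP2-001 lymphoblastoid cells, 2500/well; qHTS concentration-response data fitted with Hill equation for AC50.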

[4] = MultiTox-Fluor Cytotoxicity Assay - LYMP1-001 - Live Cells (AID 947); conditions: LYMP1-001 lymphoblastoid cells, live-cell protease fluorescence viability; series mostly up to 92.2 µM; further: potency means the concentration at half of the fitted maximal effect
[5] = Cell Viability - LYMP1-003 - Assay at 40 hr (AID 964); conditions: LYMP1-003 lymphoblastoid viability; series mostly up to 92.2 µM; further: on the % scale 0 is the no-effect control and ±100 the full control effect; nearly all actives have a fitted effect of over 60% in size
Method in brief: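 Human lymphoblastoid LYMP1-003 cells, 2500/well in complete medium, rested 5 hr at 37 C, then exposed to compounds for 40 hr at 37 C. Viability read as intracellular ATP by CellTiter-Glo luminescence; AC50 from Hill fits of concentration-response data.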

[6] = Cell Viability - LYMP2-009 (AID 968); conditions: LYMP2-009 lymphoblastoid cell viability; series mostly up to 92.2 µM; further: potency means the concentration at half of the fitted maximal effect; nearly all actives have a fitted effect of over 55% in size
[7] = Cell Viability - LYMP2-013 (AID 970); conditions: LYMP2-013 lymphoblastoid cells viability; activity change, negative = cytotoxic: at 92.2 µM (top of the series); further: potency means the concentration at half of the fitted maximal effect; nearly all actives have a fitted effect of over 55% in size
Method in brief: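 Human lymphoblastoid cells, 2500/well, were preincubated 5 hr at 37 C, then treated with compounds for 24 hr at 37 C in complete medium. Intracellular ATP was read by CellTiter-Glo luminescence; AC50 from Hill-equation fits of concentration-response data.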

[8] = Cell Viability - LYMP2-015 (AID 971); conditions: LYMP2-015 lymphoblastoid cell viability; series mostly up to 92.2 µM; further: potency means the concentration at half of the fitted maximal effect; nearly all actives have a fitted effect of over 55% in size
Method in brief: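 Human lymphoblastoid cells (2500/well) in complete medium were preincubated 5 hr at 37 C, then compound-treated 24 hr at 37 C. Intracellular ATP was read by CellTiter-Glo luminescence after 30 min at room temperature; AC50 came from Hill-equation concentration-response fits.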

[9] = Cell Viability - LYMP2-017 (AID 972); conditions: LYMP2-017 lymphoblastoid cell viability; series mostly up to 92.2 µM; further: potency means the concentration at half of the fitted maximal effect; nearly all actives have a fitted effect of over 55% in size
Method in brief: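 Human lymphoblastoid cells (2500/well) were seeded in complete medium, held 5 hr at 37 C, then exposed to compounds for 24 hr at 37 C. Intracellular ATP was read by CellTiter-Glo luminescence after 30 min at room temperature, with AC50 values from Hill-equation fits.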

[10] = Cell Viability - LYMP2-019 (AID 973); conditions: LYMP2-019 lymphoblastoid cell line viability; series mostly up to 92.2 µM
Method in brief: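 Human lymphoblastoid cells were seeded at 2500 cells/well, preincubated 5 hr at 37 C, then exposed to compounds for 24 hr at 37 C in complete medium. Intracellular ATP was measured by CellTiter-Glo luminescence; AC50 from Hill fits.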

[11] = Cell Viability - LYMP2-021 (AID 974); conditions: LYMP2-021 lymphoblastoid cells viability; series mostly up to 92.2 µM
Method in brief: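 Human lymphoblastoid cells (2500/well) were preincubated 5 hr at 37 C, then exposed to compounds for 24 hr at 37 C in complete medium. Intracellular ATP was read by CellTiter-Glo luminescence; AC50 came from Hill-equation fits of concentration-response data.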

[12] = Cell Viability - LYMP2-007 (AID 979); conditions: LYMP2-007 lymphoblastoid cell viability; activity change, negative = cytotoxicity: at 92.2 µM (top of the series);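 further: potency means the concentration at half of the fitted maximal effect; cells exposed to compound for 24 h before reading; nearly all actives have a fitted effect of over 60% in size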
Method in brief: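 Human lymphoblastoid cells (2500/well) were plated in complete medium, incubated 5 hr at 37 C, then exposed to compounds for 24 hr at 37 C. Intracellular ATP was read by CellTiter-Glo luminescence after 30 min at room temperature; AC50 from Hill fits.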

[13] = Cell Viability - LYMP2-010 (AID 981); conditions: LYMP2-010 lymphoblastoid cell viability, qHTS; series mostly up to 92.2 µM
Method in brief: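 Human lymphoblastoid LYMP2-010 cells (2500/well) were preincubated 5 hr at 37 C, then exposed to compounds for 24 hr at 37 C in complete medium. Intracellular ATP was measured by CellTiter-Glo luminescence after 30 min at room temperature; AC50 from Hill-fitted concentration-response.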

[14] = Cell Viability - LYMP2-020 (AID 986); conditions: activity change, negative = viability loss: at 92.2 µM (top of the series)
Method in brief: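 Human lymphoblastoid cells, 2500/well, were pre-incubated 5 hr at 37 C, then exposed to compounds for 24 hr at 37 C in complete medium. Intracellular ATP was read by CellTiter-Glo luminescence, and AC50 was derived by Hill fitting of concentration-response data.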

[15] = Cell Viability - LYMP2-022 (AID 987); conditions: LYMP2-022 lymphoblastoid cell viability; series mostly up to 92.2 µM; further: nearly all actives have a fitted effect of over 55% in size; further: potency means the concentration at half of the fitted maximal effect
Method in brief: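 Human lymphoblastoid cells, 2500/well, preincubated 5 hr at 37 C, then exposed to compounds over a concentration range for 24 hr at 37 C in complete medium. Viability read as intracellular ATP by CellTiter-Glo luminescence after 30 min at room temperature; AC50 from Hill fits.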

[16] = Cell Viability - LYMP2-024 (AID 988); conditions: LYMP2-024 lymphoblastoid cell viability; activity change, negative = cytotoxicity: at 92.2 µM (top of the series); further: potency means the concentration at half of the fitted maximal effect; nearly all actives have a fitted effect of over 60% in size
Method in brief: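 Human lymphoblastoid cells (2500/well) in complete medium were preincubated 5 hr at 37 C, then exposed to compounds for 24 hr at 37 C. Intracellular ATP was read by CellTiter-Glo luminescence; AC50 from Hill-equation fits of concentration-response data.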

[17] = molecular target: Peroxisome proliferator-activated receptor delta (Homo sapiens) (UniProt Q03181); assay: qHTS assay for small molecule antagonists of peroxisome proliferator-activated receptor delta signaling (AID 588535; active means well fitted inhibition curve with a large enough effect in the signal ratio, with a control signal flat, not every such curve was filed as active; inconclusive means small, poorly fitted or top-dose-only effect, or effect the other way, or a change in a side signal; inactive means no such curve, though single readings can be large or run the other way; the % refers to the signal ratio); conditions: HEK293T PPARd-UAS-bla, beta-lactamase FRET ratio, 18 h; activity change, negative = inhibition: at 76.7 µM (top of the series)
Chain of UniProt Q03181 (Q03181 whole entry, looked up): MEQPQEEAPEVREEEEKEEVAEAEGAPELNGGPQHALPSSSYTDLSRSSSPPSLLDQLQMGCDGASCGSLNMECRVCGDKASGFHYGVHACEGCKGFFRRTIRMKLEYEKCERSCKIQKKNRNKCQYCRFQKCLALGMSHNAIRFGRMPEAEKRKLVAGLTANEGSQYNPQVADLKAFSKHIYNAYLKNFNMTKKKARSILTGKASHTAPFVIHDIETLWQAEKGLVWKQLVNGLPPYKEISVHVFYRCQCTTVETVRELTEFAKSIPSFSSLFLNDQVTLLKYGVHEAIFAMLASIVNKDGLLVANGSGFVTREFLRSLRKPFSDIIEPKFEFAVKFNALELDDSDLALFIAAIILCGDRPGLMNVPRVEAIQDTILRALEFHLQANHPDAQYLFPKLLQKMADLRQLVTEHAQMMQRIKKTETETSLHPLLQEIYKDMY
Method in brief: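 Cells were seeded at 4000 per well in assay medium containing 2% charcoal/dextran FBS and held 5 hrs at 37 C. Compounds were then added for 18 hrs. CCF4 substrate was applied for 2 hrs at room temperature before fluorescence reading.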

[18] = molecular target: Peroxisome proliferator-activated receptor gamma (Homo sapiens) (UniProt P37231); assay: qHTS assay for small molecule agonists of peroxisome proliferator-activated receptor gamma signaling (AID 588536; active means well fitted curve in the direction sought with a large enough effect in the signal ratio, with a control signal flat, not every such curve was filed as active; inconclusive means small, poorly fitted or top-dose-only effect, or effect the other way, or a change in a side signal; inactive means no such curve, though single readings can be large or run the other way; the % refers to the signal ratio; further: potency means the concentration at half of the fitted maximal effect;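 on activation: 0% = DMSO basal wells and 100% = rosiglitazone at 2 µM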); conditions: HEK293 PPARg-UAS-bla, beta-lactamase ratio, 16 h; activation: at 76.7 µM (top of the series), percent of rosiglitazone response, DMSO as zero
Method in brief: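 GeneBLAzer PPAR-gamma-UAS-bla HEK293 cells in 1% charcoal/dextran-treated FBS medium were treated 16 h at 37 C with compounds. Beta-lactamase activity was read by CCF4 ratio (460/530 nm). Response was normalized to 2 uM rosiglitazone (100%) and DMSO, then Hill-fitted for EC50 and efficacy.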

[19] = molecular target: Peroxisome proliferator-activated receptor gamma (Homo sapiens) (UniProt P37231); assay: qHTS assay for small molecule antagonists of peroxisome proliferator-activated receptor gamma signaling (AID 588537; active means well fitted inhibition curve with a large enough effect in the signal ratio, with a control signal flat, not every such curve was filed as active; inconclusive means small, poorly fitted or top-dose-only effect, or effect the other way, or a change in a side signal; the % refers to the signal ratio; further: potency means the concentration at half of the fitted maximal effect;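 further: reporter cells co-stimulated with 50 nM rosiglitazone agonist during compound treatment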; on activity, negative = inhibition: % of control where 0% means no effect); conditions: HEK293 PPARg-UAS-bla, beta-lactamase ratio, antagonist mode; activity, negative = inhibition: at 76.8 µM (top of the series)
Method in brief: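 Step one: plate 3000 HEK293 UAS-bla cells per well in medium with 1% stripped serum and hold 6-6.5 h at 37 C. Step two: add compound and 50 nM agonist for 16 h. Step three: CCF4 loading, fluorescence read.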

[20] = molecular target: Retinoic acid receptor RXR-alpha (Homo sapiens) (UniProt P19793); assay: qHTS assay for small molecule agonists of retinoid X receptor alpha signaling (AID 588544; calls by dose curve; further: potency means the concentration at half of the fitted maximal effect;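 on activation: 0% = DMSO basal wells and 100% = reference agonist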); conditions: HEK293T RXRa-UAS-bla, beta-lactamase reporter, 18 h; activation: at 76.7 µM (top of the series) unless noted
Chain of UniProt P19793 (P19793 whole entry, looked up): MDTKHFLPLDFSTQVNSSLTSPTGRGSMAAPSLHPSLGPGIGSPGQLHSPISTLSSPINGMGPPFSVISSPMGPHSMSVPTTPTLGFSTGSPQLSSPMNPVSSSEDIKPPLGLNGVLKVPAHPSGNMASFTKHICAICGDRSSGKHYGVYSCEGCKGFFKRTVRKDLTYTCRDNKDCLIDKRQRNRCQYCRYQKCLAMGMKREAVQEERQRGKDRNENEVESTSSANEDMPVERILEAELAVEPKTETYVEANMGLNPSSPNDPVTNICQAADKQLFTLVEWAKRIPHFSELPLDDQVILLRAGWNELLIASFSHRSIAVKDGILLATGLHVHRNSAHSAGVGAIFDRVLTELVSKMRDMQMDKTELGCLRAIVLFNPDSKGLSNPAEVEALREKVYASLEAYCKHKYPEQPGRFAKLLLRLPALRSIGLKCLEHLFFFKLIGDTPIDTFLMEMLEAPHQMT

[21] = molecular target: Thyroid hormone receptor beta (Homo sapiens) (UniProt P10828); assay: qHTS assay for small molecule antagonists of thyroid hormone receptor beta signaling (AID 588547; active means well fitted inhibition curve with a large enough effect in the signal ratio, with a control signal flat, not every such curve was filed as active; inconclusive means small, poorly fitted or top-dose-only effect, or effect the other way, or a change in a side signal; the % refers to the signal ratio;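 further: cells stimulated with 0.4 nM T3 agonist during compound exposure; on the % scale 0 is the no-effect control and ±100 the full control effect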); conditions: TR-UAS-bla HEK293, beta-lactamase ratio, antagonist mode, 18 h
Chain of UniProt P10828 (P10828 whole entry, looked up): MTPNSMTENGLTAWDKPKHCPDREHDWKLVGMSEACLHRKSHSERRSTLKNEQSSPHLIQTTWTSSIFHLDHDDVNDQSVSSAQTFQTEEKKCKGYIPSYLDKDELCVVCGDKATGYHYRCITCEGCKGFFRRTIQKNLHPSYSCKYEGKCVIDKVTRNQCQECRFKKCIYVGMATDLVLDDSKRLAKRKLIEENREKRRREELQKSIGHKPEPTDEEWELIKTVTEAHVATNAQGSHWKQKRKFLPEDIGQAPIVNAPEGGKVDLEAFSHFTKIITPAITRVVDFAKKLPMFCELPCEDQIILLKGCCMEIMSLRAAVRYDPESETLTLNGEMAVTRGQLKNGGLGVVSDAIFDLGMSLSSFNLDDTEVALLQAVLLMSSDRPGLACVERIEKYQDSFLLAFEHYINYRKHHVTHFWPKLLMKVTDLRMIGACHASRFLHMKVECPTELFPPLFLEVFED
Method in brief: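 TR-UAS-bla GripTite HEK293 cells in 2% charcoal/dextran FBS medium; compounds 0.59 nM to 92 uM with T3 at 0.4nM final, 18 h at 37 C. Beta-lactamase read by CCF4 fluorescence (460/530 nm); Hill fits gave IC50 and efficacy.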

[22] = qHTS assay for small molecule agonists of the antioxidant response element (ARE) signaling pathway (AID 651741; active means well fitted activation curve with a large enough effect in the signal ratio; inconclusive means small, poorly fitted or top-dose-only effect, or effect the other way, or a change in a side signal; the % refers to the signal ratio; further: % of control where 0% means no effect); conditions: HepG2 ARE-bla reporter, beta-lactamase FRET ratio, 16 h; activation: at 96 µM (top of the series) unless noted
Method in brief: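 HepG2 ARE-bla cells plated at 2,000 cells/well and incubated 5 h at 37 C/5% CO2 received 23 nL compound in DMSO. After 16 h at 37 C, LiveBLAzer B/G FRET substrate was applied for 2 h at room temperature and fluorescence read.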

[23] = qHTS assay to identify small molecules that stimulate interleukin-8 (IL-8) secretion (AID 651758; active means well fitted activation curve with a large enough effect in the signal ratio; inconclusive means small, poorly fitted or top-dose-only effect, or effect the other way, or a change in a side signal; the % refers to the signal ratio; further: potency means the concentration at half of the fitted maximal effect); conditions: HTRF ratio (665/615); activation: at 92.2 µM (top of the series)
Method in brief: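 THP-1 cells (2000/well) exposed to compound 16 h at 37 C; secreted IL-8 then detected by HTRF with cryptate- and XL665-labelled anti-IL-8 antibody pair after 1-3 h at room temperature.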

[24] = qHTS assay for small molecule agonists of the antioxidant response element (ARE) signaling pathway measured by Nrf2-dependant transcriptional activity (AID 720636; active means well fitted curve in the direction sought with a large enough effect in the repeat runs; inconclusive means weak or mixed curves; inactive means no such curve, though single readings can be large; an effect the other way counts as inactive or inconclusive; further: potency means the concentration at half of the fitted maximal effect); conditions: ARE-luc HepG2, Nrf2 luciferase reporter, 16 h; series mostly up to 92.4 µM
Method in brief: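 Nrf2-dependent transcription read as ONE-Glo luciferase signal from ARE-luc HepG2 reporter cells after 16 hr compound treatment at 37 C, 5% CO2, in assay medium with 1% dialyzed FBS.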

[25] = qHTS assay for small molecule antagonists of the retinoid-related orphan receptor gamma (ROR-gamma) signaling pathway - cell viability counter screen (AID 720652; active means well fitted curve in the direction sought with a large enough effect in the repeat runs; inconclusive means weak or mixed curves; inactive means no such curve, though single readings can be large; an effect the other way counts as inactive or inconclusive;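 further: potency means the concentration at half of the fitted maximal effect; compound exposure lasted 16 hr before ATP read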); conditions: RORgamma reporter cell line viability counter screen; series mostly up to 92.2 µM
Method in brief: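 Counter screen in CHO cells carrying TET-inducible ROR-gamma and an ROR response element-luciferase reporter; cells plated 5 hr, compound pinned, doxycycline added, then 16 hr at 37 C. Viability read as intracellular ATP by CellTiter-Glo luminescence.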

[26] = Cell Viability - BJ (AID 421; calls by dose curve;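 further: potency means the concentration at half of the fitted maximal effect; cells exposed to compound for 40 hours at 37 °C before readout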); conditions: BJ fibroblast viability, qHTS
Method in brief: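 Normal human BJ foreskin fibroblasts, 1500/well in complete medium, treated 40 hr at 37 °C. Cellular ATP by CellTiter-Glo luminescence; normalized to DMSO and 100 uM tamoxifen, AC50 from Hill fit.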

[27] = molecular target: Mitogen-activated protein kinase 10 (Mus musculus) (UniProt Q61831); assay: JNK3 AlphaScreen Assay (AID 530; active means well fitted curve in either direction with a large enough effect, not every such curve was filed as active; inconclusive means small, poorly fitted or top-dose-only effect, or another doubt); conditions: JNK3 lysate, c-Jun phosphorylation; activity change, negative = inhibition: at 57.1 µM (top of the series)
Method in brief: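 qHTS format: compounds tested as titrations against IL-1beta/TNF-alpha-activated HepG2 lysate JNK3 with biotin-GST-cJun substrate and 10 uM ATP at room temperature. Loss of anti-phospho-cJun AlphaScreen signal indicates inhibition.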

[28] = molecular target: Glucocorticoid receptor (Homo sapiens) (UniProt P04150); assay: qHTS assay for small molecule antagonists of glucocorticoid receptor signaling (AID 588533; active means well fitted inhibition curve with a large enough effect in the signal ratio, with a control signal flat, not every such curve was filed as active; inconclusive means small, poorly fitted or top-dose-only effect, or effect the other way, or a change in a side signal; the % refers to the signal ratio;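 further: cells stimulated with 2 nM dexamethasone as agonist; on the % scale 0 is the no-effect control and ±100 the full control effect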); conditions: HeLa MMTV-bla, GRE beta-lactamase ratio, antagonist mode, 18 h; activity change, negative = inhibition: at 76.8 µM (top of the series)
Chain of UniProt P04150 (P04150 whole entry, looked up): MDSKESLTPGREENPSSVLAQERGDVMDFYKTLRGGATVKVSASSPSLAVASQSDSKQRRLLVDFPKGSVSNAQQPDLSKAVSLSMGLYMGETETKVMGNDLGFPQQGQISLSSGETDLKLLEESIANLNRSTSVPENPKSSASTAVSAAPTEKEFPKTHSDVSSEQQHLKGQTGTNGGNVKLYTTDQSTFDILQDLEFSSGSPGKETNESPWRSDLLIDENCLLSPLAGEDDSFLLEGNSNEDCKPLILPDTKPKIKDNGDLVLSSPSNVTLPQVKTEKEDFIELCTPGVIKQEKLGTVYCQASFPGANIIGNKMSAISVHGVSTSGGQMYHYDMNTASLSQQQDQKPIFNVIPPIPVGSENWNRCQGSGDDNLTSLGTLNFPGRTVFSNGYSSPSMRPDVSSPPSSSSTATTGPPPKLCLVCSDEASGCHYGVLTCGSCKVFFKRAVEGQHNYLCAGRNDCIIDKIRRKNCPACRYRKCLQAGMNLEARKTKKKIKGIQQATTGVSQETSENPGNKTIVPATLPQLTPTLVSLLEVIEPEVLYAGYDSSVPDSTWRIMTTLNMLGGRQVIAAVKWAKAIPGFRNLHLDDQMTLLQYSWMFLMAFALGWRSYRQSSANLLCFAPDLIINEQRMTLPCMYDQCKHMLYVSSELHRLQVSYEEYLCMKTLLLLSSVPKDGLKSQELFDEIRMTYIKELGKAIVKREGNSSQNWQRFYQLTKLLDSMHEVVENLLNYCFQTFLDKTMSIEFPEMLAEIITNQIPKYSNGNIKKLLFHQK

[29] = molecular target: Vitamin D3 receptor (Homo sapiens) (UniProt P11473); assay: qHTS assay for small molecule agonists of vitamin D receptor signaling (AID 588543; calls by dose curve;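 further: 0% = DMSO basal and 100% = reference agonist control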); conditions: HEK293T VDR-UAS-bla, beta-lactamase ratio, 16 h; activation: at 76.8 µM (top of the series)
Chain of UniProt P11473 (P11473 whole entry, looked up): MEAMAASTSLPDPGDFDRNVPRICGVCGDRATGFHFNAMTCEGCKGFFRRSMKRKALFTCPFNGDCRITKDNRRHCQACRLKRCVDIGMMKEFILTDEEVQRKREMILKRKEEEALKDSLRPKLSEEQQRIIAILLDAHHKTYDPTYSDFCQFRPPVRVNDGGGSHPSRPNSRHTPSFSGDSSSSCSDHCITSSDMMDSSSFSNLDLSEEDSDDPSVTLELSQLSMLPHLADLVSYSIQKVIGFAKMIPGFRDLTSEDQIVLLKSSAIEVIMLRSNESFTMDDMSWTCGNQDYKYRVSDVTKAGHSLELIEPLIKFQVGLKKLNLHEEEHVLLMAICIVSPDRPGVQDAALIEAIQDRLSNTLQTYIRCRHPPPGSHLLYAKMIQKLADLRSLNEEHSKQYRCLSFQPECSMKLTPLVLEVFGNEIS
Method in brief: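 Agonist-mode beta-lactamase reporter: HEK293T VDR-UAS-bla cells in charcoal-stripped 2% FBS, compound series 16 h 37 C, CCF4 2 h RT. EC50 from Hill fit, scaled against DMSO and 50 nM calcitriol control.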
Tags describe the fitted curve by direction and shape or compound fluorescence and quenching.

Clc1nc2ccccc2nc1Cl
inconclusive: Potency [1] 85.1 µM [partial curve] | Potency [3] 25.1 µM [cytotoxic, partial curve, poor fit] | Potency [4] 5.01 µM [cytotoxic, full curve] | Potency [6] 50.1 µM [cytotoxic, partial curve] | Potency [7] 50.1 µM [cytotoxic, partial curve, poor fit] | Potency [8] 39.8 µM [cytotoxic, partial curve, poor fit] | Potency [9] 39.8 µM [cytotoxic, partial curve, poor fit] | Potency [10] 39.8 µM [cytotoxic, partial curve] | Potency [11] 50.1 µM [cytotoxic, single point] | Potency [12] 50.1 µM [cytotoxic, partial curve, poor fit] | Potency [13] 39.8 µM [cytotoxic, partial curve] | Potency [14] 39.8 µM [cytotoxic, partial curve, poor fit] | Potency [15] 39.8 µM [cytotoxic, partial curve, poor fit] | Potency [16] 50.1 µM [cytotoxic, single point] | activity change, negative = inhibition [17] -0.327% | Potency [18] 70.8 µM [side channel, falling, partial curve, poor fit] | activity, negative = inhibition [19] 9.47% | activation [20] 3.32% | activation [22] 17.3% | Potency [23] 66.8 µM [inhibitor, single point] | Potency [24] 37.6 µM [activator, partial curve] | Potency [25] 66.8 µM [cytotoxic, partial curve, poor fit]
active: activity change, negative = cytotoxicity [2] -143%
inactive: Potency [5] | activity change % (negative = inhibition) [21] -2.15%

CCCCCCCCOc1ccc(C(=O)O)cc1
inconclusive: Potency [27] 15.8 µM [activator, full curve, poor fit] | activity change, negative = inhibition [17] 43.8% | activation [18] -13.1% | Potency [19] 39.8 µM [side channel, rising, partial curve]
active: Potency [20] 39.8 µM | Potency [23] 66.8 µM
inactive: Potency [26] > 92 µM | Potency [15] | Potency [28] | Potency [29]
